Measurements as given in PubChem BioAssay AID504706 (National Center for Advancing Translational Sciences (NCATS), 2011).
In all, about 320,000 compounds went through this assay and about 200 (0.062%) were called active. Inconclusive results, whose numbers are uncertain, are shown with a selection of clear calls. The call rests on the fitted dose curve; in most records, active means well fitted activation curve with a large enough effect; inconclusive means small, poorly fitted or top-dose-only effect; inactive means no such curve, though single readings can be large or run the other way. No potency is given beside an inconclusive call; the fits are too rough.

Experiment: qHTS assay for re-activators of p53 using a Luc reporter; further: nearly all actives have a fitted effect of over 45% in size
Conditions: H1299 p53-A138V BP100-luciferase reporter, luminescence, 24 h; series mostly up to 92.2 µM
Procedure, shortened: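 p53-null H1299 cells stably carrying temperature-sensitive p53-A138V and a BP100-luciferase reporter were pinned with compounds (4-point, 1:5 series) and held 24 hrs at 37 deg C. Luminescence was read 10 min after detection reagent.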
Potency means the concentration at half of the fitted maximal effect; tags describe the fitted curve by direction and shape.

Structure (SMILES) | Potency
Cc1noc(NC(=O)c2ccc(Cl)cc2)c1Cl | inconclusive [activator, partial curve, poor fit]
CC(=O)OCCCNc1cc(Sc2nc3ccccc3s2)c2nonc2c1[N+](=O)[O-] | inactive
O=C(NC(=S)Nc1ccc(N2CCCCC2)cc1)c1cccs1 | inconclusive [activator, partial curve, poor fit]
CSCCC(NC(=O)OC(C)(C)C)C(=O)Oc1ccc2c(=O)c(-c3ccc4c(c3)OCCO4)coc2c1 (stereo not drawn) | inconclusive [activator, full curve, poor fit]
O=C(Nc1nnc(-c2cccs2)o1)c1cccc(C(F)(F)F)c1 | inconclusive [activator, partial curve, poor fit]
CC(C)(C)c1nnc(N/N=C/c2ccccc2O)n(N)c1=O | inconclusive [activator, full curve, poor fit]
CCCCN(C)C(=O)C1CCN(Cc2ccccn2)CC1 | inconclusive [activator, partial curve, poor fit]
Nc1nc(CSc2ccccn2)nc(Nc2ccccc2)n1 | inconclusive [activator, full curve, poor fit]
Clc1ccc2nc(N3CCN(c4ccccc4)CC3)sc2c1 | inconclusive [activator, full curve, poor fit]
O=C(CCNc1cccc(F)c1)c1cc2ccccc2o1 | inconclusive [activator, single point]
NC(=O)C1CCCN(C(=O)c2ccc(-c3cccc(Cl)c3Cl)o2)C1 (stereo not drawn) | inconclusive [activator, full curve, poor fit]
O=C(N/N=C/c1ccc(Br)cc1)c1ccc(Br)o1 | inconclusive [activator, partial curve, poor fit]
CCOC(CCn1c(SCc2ccc([N+](=O)[O-])cc2)nc2ccccc2c1=O)OCC | inactive
COc1cc([N+](=O)[O-])cc(/C=N/NC(=O)c2cc(-c3ccccc3)nc3ccccc23)c1O | inactive
Cc1cc(C)c2c(N)c(C(=O)N/N=C/c3cccs3)sc2n1 | inconclusive [activator, full curve, poor fit]
CCOc1ccc(S(=O)(=O)N2CCN(c3ncccn3)CC2)cc1 | inconclusive [activator, single point]
CCOC(=O)c1cc(-c2cccc(C(F)(F)F)c2)nc2nc(SC)[nH]c(=O)c12 | inactive
O=C(N/N=C/c1cccs1)c1c[nH]c2ccccc12 | inactive
